Data from the supplement of paper PMC11417369.
± gives the standard deviation of the averaged measurements. The list shows a part of the results.

system: PfAP2-G AP2 domain (GST-tagged); assay: gcPBM binding intensity (ln(normalized median fluorescence intensity)); higher = stronger DNA binding
Procedure, shortened: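 Alexa488 anti-GST antibody, scanned at 488 nm, detected GST-tagged P. falciparum DNA-binding domains that had been expressed in E. coli and incubated for 1 h on an Agilent 4 × 180k array. The array carried primer-extended double-stranded 36-bp intergenic genomic probes and negative controls. Binding intensity is the highest Masliner-normalised natural-log median intensity across replicate spots of either orientation of each probe.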

Row | Sequence | gcPBM binding intensity (ln)
1 | AAAATTCTTCGGGGGAGTACAAGGATATTCTACGTT [XGTACX_site3974] | 11.6 ± 0.98
2 | TTATAATATATATGTGGTACTTATTTATTTATTTAT [XGTACX_site7572] | 11.1 ± 0.76
3 | ATTTTTGATTTTAAAAGTACATAAGTATACTATTTA [XGTACX_site7162] | 11.2 ± 0.83
4 | TTTTGTAATTTTGTATGTACACATTAAAGTAATATG [XGTACX_site2401] | 11.5 ± 0.91
5 | TAATTAATATATTTTTGTACTTATATATTTGCGTAT [XGTACX_site340] | 11 ± 0.55
6 | AATCCACAAAGACACACACACACATATATATATATA [CACACA_site1269] | 10.4 ± 0.63
7 | GTTAATATACATAAACGTACAGAATTATTATGAGTT [XGTACX_site5185] | 11.2 ± 0.82
8 | CTTTTGCCCAAAAAGGTACACACCACAATGTACATA [CACACA_site809] | 11.6 ± 0.91
9 | CCAATTCAAATATGCACACAAATTTGAAAACGATTA [CACACA_site3607] | 10.1 ± 0.19
10 | TAAATAATCGCATAATGTACATATAATTTTTTTTTT [XGTACX_site4880] | 11 ± 0.56
11 | AAAATTTTTTTTATTTGTACACAATTCGATACATAA [XGTACX_site4804] | 11.3 ± 0.74
12 | GCTTGGATATATTAATGTACTTATATATTATGTTGT [XGTACX_site3768] | 11.2 ± 0.77
13 | ATATTTTCAATGTTCACACATACACAAAAAAAAAAA [CACACA_site6077] | 10.2 ± 0.41
14 | TTTGTTGTTGTGAAACGTACTCATAGGATGTTGTAT [XGTACX_site5716] | 11 ± 0.57
15 | ATTAAAAAATCCATAGTGCACTACGATAGGTTCCGA [GTGCAC_site9463] | 10.3 ± 0.22
16 | AAAGATGGAGTGATATGTACTGATATATTATTATAT [XGTACX_site6500] | 10.8 ± 0.52
17 | ATATAGTAAAGTTATACACACATGAATTTTCCCATA [CACACA_site7457] | 9.91 ± 0.085
18 | ATATTTTAATTATAAAGTACATAAAAATATATAAAC [XGTACX_site6705] | 11.2 ± 0.78
19 | TAAAAATGTAAACACACACACATAAATATATTTTAT [CACACA_site5397] | 9.98 ± 0.057
20 | TTTTTTATTGTGATACGTATATTATTTTATGATAAA [CACACA_negctrl_site1591] | 10.6 ± 0.27
21 | TTTTTTAAACGTTTAAATAATTAAATATAAATAAAT [CACACA_negctrl_site1567] | 9.72 ± 0.15
22 | TGAACAACTATTACTGCACACATTCTTACACTATAT [CACACA_site4533] | 10.23 ± 0.021
23 | TACGCAAAATAAAATCAAAATATAAGGAAAAAAAAA [TGCATGCA_negctrl_site578] | 9.77 ± 0.11

Row | Sequence | gcPBM binding intensity (ln)
24 | AGGTGTCATATATGCACACAAAAGTAACACGCACCT [CACACA_site472] | 10.33 ± 0.042
25 | AAAAAAGAAACAATCGCATGCAATGTTAATGTACAT [TGCATGCA_site395] | 10.6 ± 0.4
26 | GTGTAATGCTTATCGGTGCATATATATATATATATA | 9.96 ± 0.22
27 | GACCTACAAAAAGGCACACATATACTCATACATACA [CACACA_site5232] | 10.2 ± 0.064
28 | ACATTTATTTTGAATGGTACACTATTATTATGAAAT [XGTACX_site4384] | 11 ± 0.59
29 | AAAAAAAAAAAAGGTACTACACACTATTATCAATAG [XGTACX_site161] | 11.1 ± 0.68
30 | GATAATTTTTGCATATGTACTTAAAAATTAAAAATT [XGTACX_site7037] | 11.3 ± 0.95
31 | ATACTGTATGAAAGCACACATACTTATTACTAACAT [CACACA_site4164] | 10.16 ± 0.085
32 | CAAATAACAAAATAATGTACATTTATACTTTTTTTT [XGTACX_site943] | 10.8 ± 0.38
33 | TATACATATTTGTATTGTACATAAACTAAATCTTCA [XGTACX_site610] | 11 ± 0.5
34 | TAATATTTATCAAGTCGTACATAAAATGTATAATAA [XGTACX_site1103] | 11.4 ± 1
35 | ACAAAGAAATATAATACACACAAGAATATATTGGAT [CACACA_site3901] | 9.88 ± 0.099
36 | GTACAATAAGATGTAGCATGCCGTACCTTCACTACG [TGCATGCA_site235] | 11.2 ± 0.28
37 | TCTAATAAAATAAATACATGCATACATACATACATA [TGCATGCA_site895] | 9.9 ± 0.16
38 | AGGATTATATATTAATGTACCCGCGTTAATTTTTTT [XGTACX_site2878] | 11.5 ± 0.88
39 | AAATAGAGAAATACAAGTACATACTAAACCTATCTA [XGTACX_site1334] | 11.3 ± 0.79
40 | TATACTGTCAATTCTACACACCATAGGGGGAGCATA [CACACA_site1875] | 11.1 ± 0.64
41 | CACCAATTCATATGCACACACATCTGCATATTATAT [CACACA_site1773] | 10.2 ± 0.12
42 | ATTAAAAGAACAATGTAAAAAAAGCAAATTAAAGAT [TGCATGCA_negctrl_site360] | 10.15 ± 0.035
43 | ATGTATAAACATATATGTACTTAAATAAAATGTTAA [XGTACX_site4044] | 11.2 ± 0.72
44 | AAAAATAAAAAAATAATAAAATAAAAAATAAAAAAT [TGCATGCA_negctrl_site89] | 9.56 ± 0.12
45 | TAAAAAAACATATATTGTACGGAGATAATAATTTTT [XGTACX_site2946] | 10.6 ± 0.31
